In PMC4336329 (PLoS ONE, 2015):
About 2,200 (0.71%) of roughly 310,000 compounds showed an effect of 50% or more. The effect is printed as a negative number. This is one part of the list.

These compounds were tested against human ether-à-go-go-related gene (hERG) potassium channel (human, UniProt Q12809) (assay: primary screen, population patch clamp on CHO cells stably expressing hERG).
Sequence of human ether-à-go-go-related gene (hERG) potassium channel (Q12809 whole entry, looked up): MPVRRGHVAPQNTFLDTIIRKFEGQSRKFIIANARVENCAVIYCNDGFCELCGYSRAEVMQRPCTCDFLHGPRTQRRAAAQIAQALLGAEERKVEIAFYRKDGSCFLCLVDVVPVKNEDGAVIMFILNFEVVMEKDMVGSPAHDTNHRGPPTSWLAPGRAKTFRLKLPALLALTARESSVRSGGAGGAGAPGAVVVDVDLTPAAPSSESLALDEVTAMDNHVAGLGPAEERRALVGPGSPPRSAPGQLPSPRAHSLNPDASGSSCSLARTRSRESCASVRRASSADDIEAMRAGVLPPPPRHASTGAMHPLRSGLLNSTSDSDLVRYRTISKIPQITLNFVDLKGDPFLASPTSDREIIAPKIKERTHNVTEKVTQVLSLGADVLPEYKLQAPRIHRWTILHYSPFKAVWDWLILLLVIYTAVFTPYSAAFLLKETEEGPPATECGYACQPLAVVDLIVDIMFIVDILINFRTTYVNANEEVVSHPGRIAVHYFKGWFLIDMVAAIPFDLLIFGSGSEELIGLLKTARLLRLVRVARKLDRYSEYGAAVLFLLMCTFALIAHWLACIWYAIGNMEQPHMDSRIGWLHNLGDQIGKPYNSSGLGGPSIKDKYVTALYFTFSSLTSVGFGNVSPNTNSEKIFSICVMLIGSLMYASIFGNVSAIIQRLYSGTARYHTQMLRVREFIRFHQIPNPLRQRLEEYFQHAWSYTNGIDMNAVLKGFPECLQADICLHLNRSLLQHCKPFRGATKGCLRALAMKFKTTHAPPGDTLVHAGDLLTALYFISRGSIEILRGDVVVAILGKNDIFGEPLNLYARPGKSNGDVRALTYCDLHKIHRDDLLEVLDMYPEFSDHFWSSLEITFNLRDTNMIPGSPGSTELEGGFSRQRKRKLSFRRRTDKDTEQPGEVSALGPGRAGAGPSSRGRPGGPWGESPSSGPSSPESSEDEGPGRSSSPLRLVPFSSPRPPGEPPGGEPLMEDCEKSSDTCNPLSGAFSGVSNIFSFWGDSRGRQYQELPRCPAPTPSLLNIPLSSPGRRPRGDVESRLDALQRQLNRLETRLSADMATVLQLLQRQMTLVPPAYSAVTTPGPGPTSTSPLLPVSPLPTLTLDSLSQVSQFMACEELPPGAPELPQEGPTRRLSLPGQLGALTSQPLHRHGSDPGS
In the case of `Cc1nc([N+](=O)[O-])c(SCC(O)CCl)n1Cc1ccc(Cl)cc1` (stereo not drawn), the “hERG current change (%, negative = inhibition) at 1uM” value is reported as -2.57%. With `Fc1ccc(/C=N/Nc2ccccn2)cc1` the “hERG current change (%, negative = inhibition) at 1uM” value was 7.93%. `Cc1ccc(C)c(Cn2c(C(=O)OC(C)C)cc3c2ccn3C)c1` was tested, and the “hERG current change (%, negative = inhibition) at 1uM” value was 1.04%. `CCN1C(=O)[C@@H]2[C@@H](c3ccc(-c4ccc(OC)cc4)c(OC)c3)N3CCCC[C@@]3(C(=O)OC)[C@@H]2C1=O.O=C(O)C(F)(F)F` was tested, and the “hERG current change (%, negative = inhibition) at 1uM” value was 10.2%. `Cc1sc(NC(=O)c2ccco2)c(CN2CCN(c3ccc(F)cc3)CC2)c1C` was tested, and the “hERG current change (%, negative = inhibition) at 1uM” value was 13.1%. `N#C/C(=C\c1ccc(Br)s1)C(=O)N1CCN(c2ccccc2)CC1` was tested, and the “hERG current change (%, negative = inhibition) at 1uM” value was -8.23%. `COc1ccc(CCNC(=O)CSc2nc(C)cc(C)n2)cc1OC` was tested, and the “hERG current change (%, negative = inhibition) at 1uM” value was -2.92%. With `CCOC(=O)N1CCC(Nc2c(N3CCN(c4cccc(C(F)(F)F)c4)CC3)c(=O)c2=O)CC1` the “hERG current change (%, negative = inhibition) at 1uM” value was -36.3%. `CC(=O)Nc1cccc(NC(=O)c2ccccc2OCc2ccccc2)c1` was tested, and the “hERG current change (%, negative = inhibition) at 1uM” value was 13.5%. With `CNc1nc(C)c(C#N)cc1C(C)=O` the “hERG current change (%, negative = inhibition) at 1uM” value was 3.21%. In the case of `COc1cc(NC(=O)CC(C)n2ccnc2)cc(OC)c1` (stereo not drawn), the “hERG current change (%, negative = inhibition) at 1uM” value is reported as 12%. `COc1cc(Cl)c(C)cc1NC(C)C(=O)Nc1cc(C(F)(F)F)ccc1N1CCOCC1` (stereo not drawn) was tested, and the “hERG current change (%, negative = inhibition) at 1uM” value was 8.87%. `COc1cccc2cc(-c3cn4cccc(C)c4n3)c(=O)oc12` was tested, and the “hERG current change (%, negative = inhibition) at 1uM” value was 17.2%. `CCN(CC(=O)NCc1cccnc1)S(=O)(=O)c1ccc(OC)cc1` was tested, and the “hERG current change (%, negative = inhibition) at 1uM” value was 0.0713%. `COc1ccc(C2(CNS(=O)(=O)c3ccccc3)CCOCC2)cc1` was tested, and the “hERG current change (%, negative = inhibition) at 1uM” value was 6.06%. `Cc1cccc(NC(=S)N/N=C(\c2ccccc2)C(C)C)c1` was tested, and the “hERG current change (%, negative = inhibition) at 1uM” value was 8.91%. `COc1ccc(Cl)cc1NC(=O)C(C)Sc1n[nH]c(N)n1` (stereo not drawn) was tested, and the “hERG current change (%, negative = inhibition) at 1uM” value was 11.1%. With `CSc1nsc(SC)c1NC(=O)N1CCCCC1` the “hERG current change (%, negative = inhibition) at 1uM” value was 10.7%. For `CCCCCCCCCCCCCCCC(O)C(N)CO` (stereo not drawn), the “hERG current change (%, negative = inhibition) at 1uM” value was 7.04%. With `CCC(C)NS(=O)(=O)c1ccc(OCC(=O)Nc2ccc3c(c2)OCCO3)cc1` (stereo not drawn) the “hERG current change (%, negative = inhibition) at 1uM” value was -9.54%. In the case of `Cc1ccc(S(=O)(=O)N(C)C)cc1NC(=O)COC(=O)/C=C/c1ccc(F)cc1`, the “hERG current change (%, negative = inhibition) at 1uM” value is reported as 19%. `C/C(=C\C(=O)c1c(O)cc(C)oc1=O)N(C)C` was tested, and the “hERG current change (%, negative = inhibition) at 1uM” value was 14.6%. In the case of `Cc1ccc(S(=O)(=O)Nc2ccccc2C(N)=O)cc1`, the “hERG current change (%, negative = inhibition) at 1uM” value is reported as 5.28%. In the case of `COC(=O)c1cc2c(-c3ccccc3)c(C)c3ccccn3c-2c1C(=O)OC`, the “hERG current change (%, negative = inhibition) at 1uM” value is reported as 13.1%. `Cc1cccc(NC(=O)c2ccc(Cl)c(S(=O)(=O)N3CCCCC3)c2)n1` was tested, and the “hERG current change (%, negative = inhibition) at 1uM” value was -20.8%. In the case of `CS(=O)(=O)N(Cc1ccccc1)c1ccc(C(=O)NC2CCCCC2O)cc1` (stereo not drawn), the “hERG current change (%, negative = inhibition) at 1uM” value is reported as 3.66%. With `COc1ccc(N2CCN(Cc3cc(=O)oc4ccc(C)cc34)CC2)cc1` the “hERG current change (%, negative = inhibition) at 1uM” value was 13%. For `COc1ccc(C(C(=O)NC2CCCC2)N(Cc2cccs2)C(=O)c2ccn[nH]2)cc1OC` (stereo not drawn), the “hERG current change (%, negative = inhibition) at 1uM” value was 19.3%. `O=C(CCCc1ccccc1)c1ccccc1` was tested, and the “hERG current change (%, negative = inhibition) at 1uM” value was 19.4%. With `C=CCN1C(=O)CSc2ccc(C(=O)NCCC3=CCCCC3)cc21` the “hERG current change (%, negative = inhibition) at 1uM” value was -6.7%. With `COc1ccc(C)c2sc(=NC(=O)c3ccc(C(C)=O)cc3)n(C)c12` the “hERG current change (%, negative = inhibition) at 1uM” value was 10.2%. With `CCOc1ccc(N2C(=O)CC(NCCNc3ccc([N+](=O)[O-])cn3)C2=O)cc1` (stereo not drawn) the “hERG current change (%, negative = inhibition) at 1uM” value was -37.8%. In the case of `S=C(Nc1ccccc1)c1ccccn1`, the “hERG current change (%, negative = inhibition) at 1uM” value is reported as 11%. With `O=c1[nH]c(C2CCN(S(=O)(=O)c3ccccc3)CC2)nc2c1nnn2Cc1cccc(Cl)c1` the “hERG current change (%, negative = inhibition) at 1uM” value was 10.5%. `N#Cc1ccc(OCC(=O)N2CCN(C(=O)c3ccco3)CC2)cc1` was tested, and the “hERG current change (%, negative = inhibition) at 1uM” value was -40.2%. With `Cl.c1ccc(C2CN3CCSC3=N2)cc1` (stereo not drawn) the “hERG current change (%, negative = inhibition) at 1uM” value was 11.7%. `CC(=O)c1cccc(NC(=O)c2ccc(S(=O)(=O)N3CCCCC3)cc2)c1` was tested, and the “hERG current change (%, negative = inhibition) at 1uM” value was 5.02%. For `O=C(c1ccoc1)N1CCCC(N2CCN(c3ccc(F)cc3)CC2)C1` (stereo not drawn), the “hERG current change (%, negative = inhibition) at 1uM” value was -1.93%. For `CCOc1ccc(OCCC(=O)Nc2ccc(F)cc2C)cc1`, the “hERG current change (%, negative = inhibition) at 1uM” value was 10.3%. `COc1ccc(CNC(=S)Nc2cccc(Cl)c2)cc1` was tested, and the “hERG current change (%, negative = inhibition) at 1uM” value was 10.9%. For `Cc1ccc(C)n1CCN1CCN(CC(=O)Nc2ccc(S(N)(=O)=O)cc2)CC1`, the “hERG current change (%, negative = inhibition) at 1uM” value was 4.32%. `COc1ccc(OC)c(CNc2ccc3c(c2)nc(C)n3C)c1` was tested, and the “hERG current change (%, negative = inhibition) at 1uM” value was -8.17%. `Cc1ccc(OCC(=O)c2c[nH]c3ccccc23)c([N+](=O)[O-])n1` was tested, and the “hERG current change (%, negative = inhibition) at 1uM” value was 19.6%. With `O=C(CSC1=NCCS1)Nc1cccc(F)c1` the “hERG current change (%, negative = inhibition) at 1uM” value was 6.9%. For `CCN(Cc1cnn(C)c1)C(=O)c1ccc(OC2CCN(S(=O)(=O)N(C)C)CC2)cc1`, the “hERG current change (%, negative = inhibition) at 1uM” value was 11.5%.
